In all, about 18,000 sequences were measured (“TetR repression strength (sort-seq, GFP reporter)”: median about 0.23, highest 2% from about 0.68 on). The list shows a part of the results.

The experiment concerns the target TetR (class B, Tn10) (UniProt P04483). Briefly: TetR repression strength (sort-seq, GFP reporter) (relative to tetO2 = 1); higher = stronger repression. The note with it: E. coli. In outline: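 In LB with 50 µg/mL chloramphenicol, E. coli SIG10-MAX holding a low-copy library with eight randomized operator positions between a constitutive promoter and sfGFP, plus constitutive TetR, grew for 5 h at 37 °C. FACS then sorted 10^6 cells into 13 fluorescence bins for Illumina sequencing of each bin. Repression strength equals the top bin index plus one less the read-weighted mean bin, normalized to the unaltered operator. Values from three independent transformations were averaged when reads were ≥30 in every replicate and the CV was ≤0.5.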
Chain of UniProt P04483 (P04483 whole entry): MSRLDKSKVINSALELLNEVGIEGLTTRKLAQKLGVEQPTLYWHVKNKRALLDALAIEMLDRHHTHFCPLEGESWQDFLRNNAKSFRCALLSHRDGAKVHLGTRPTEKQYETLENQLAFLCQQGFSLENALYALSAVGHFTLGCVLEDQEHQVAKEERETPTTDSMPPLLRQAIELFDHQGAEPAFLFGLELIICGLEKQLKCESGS
TCCCACTAAGTGCATGAGA showed a TetR repression strength of 0.23.
Next, TCCCAACCAGTAATCGAGA: 0.12.
As for TCCCTCACAGTGCTTGAGA, the TetR repression strength turned out to be 0.321.
Next, TCCCGTCGAGTGATTGAGA: 0.372; TCCCAATGAGTTGCAGAGA: 0.0192.
For the sequence TCCCGGCGAGTGAGTGAGA, the TetR repression strength is 0.401.
Sequence TCCCTTCTAGTTCGAGAGA displayed a TetR repression strength of 0.01.
Sequence TCCCAAACAGTTGGCGAGA registered a TetR repression strength of 0.256.
Next, TCCCCAGGAGTGGGCGAGA: 0.894; TCCCGCAGAGTGTCCGAGA: 0.193.
For the sequence TCCCGTTGAGTTCAAGAGA, the TetR repression strength was 0.284.
Next, TCCCTAGTAGTGTTAGAGA: 0.297.
For TCCCGTATAGTAGGAGAGA, the TetR repression strength was 0.0443.
TCCCAGTCAGTCAGTGAGA came in with a TetR repression strength of 0.297.
Under TCCCAGGTAGTCATTGAGA stands 0.226; under TCCCGCGCAGTACACGAGA, 0.242.
Next, TCCCCTTTAGTTCGGGAGA: 0.339; TCCCTCGAAGTCGTCGAGA: 0.277; TCCCACGTAGTCTGCGAGA: 0.192.
Under TCCCCAAAAGTGTAAGAGA stands 0.264; under TCCCGGGGAGTGGCTGAGA, 0.301; under TCCCATACAGTCCCGGAGA, 0.199.
For the sequence TCCCGACGAGTAGAGGAGA, the TetR repression strength is 0.249.
Turning to TCCCTGTGAGTTTTTGAGA, the TetR repression strength was found to be 0.1.
For TCCCGGCGAGTAGGGGAGA, the TetR repression strength is 0.303.
Under TCCCATAGAGTATTCGAGA stands 0.145.
Next, TCCCGCTTAGTCGCAGAGA: 0.21.
As to TCCCGTTAAGTACGTGAGA, the TetR repression strength came out at 0.085.
In the case of TCCCAGCGAGTTGAAGAGA, the TetR repression strength worked out at 0.148.
Next, TCCCGTTAAGTGAGAGAGA: 0.0731; TCCCCTTAAGTAGTGGAGA: 0.604; TCCCGTCAAGTGTGGGAGA: 0.267.
In turn, TCCCTATTAGTGCCTGAGA had a TetR repression strength of 0.35.
TCCCATGAAGTCATAGAGA came in with a TetR repression strength of 0.193.
Next, TCCCAAAGAGTCCTCGAGA: 0.426; TCCCGGCTAGTCAGGGAGA: 0.349.
Next, TCCCGATGAGTGTCCGAGA: 0.304; TCCCAGAGAGTGGGAGAGA: 0.229; TCCCGGCAAGTGATTGAGA: 0.286.
Under TCCCTGTGAGTGGTTGAGA stands 0.0512; under TCCCGGCAAGTATTAGAGA, 0.124; under TCCCTGACAGTTTAGGAGA, 0.196.
As for TCCCGGAGAGTATGGGAGA, the TetR repression strength was 0.157.
Next, TCCCAGGGAGTGTTTGAGA: 0.294; TCCCAGCGAGTTGCAGAGA: 0.403; TCCCGTAGAGTGCAAGAGA: 0.396.
Regarding TCCCAAAAAGTGGGTGAGA, the TetR repression strength came to 0.178.
In the case of TCCCTCTTAGTGCTTGAGA, the TetR repression strength is 0.116.
The sequence TCCCTACAAGTGGAAGAGA showed a TetR repression strength of 1.21.
Under TCCCCTATAGTGGGCGAGA stands 0.165; under TCCCTATCAGTAACCGAGA, 0.42.
The sequence TCCCCGTTAGTTGGCGAGA gave a TetR repression strength of 0.208.
Under TCCCAAAAAGTGGCAGAGA stands 0.351.
As to TCCCAAGGAGTGTATGAGA, the TetR repression strength stood at 0.293.
Under TCCCGCGAAGTAAGCGAGA stands 0.151.
TCCCGGGCAGTGGAGGAGA had a TetR repression strength of 0.112.
In turn, TCCCTTAAAGTCATGGAGA registered a TetR repression strength of 0.
For TCCCGCCCAGTGGCTGAGA, the TetR repression strength is 0.211.
Under TCCCCGTGAGTCAACGAGA stands 0.241; under TCCCGGGGAGTGTACGAGA, 0.194.
Next, TCCCGTGTAGTAGGGGAGA: 0.173; TCCCGAATAGTTGTGGAGA: 0.107; TCCCTTGAAGTTCTGGAGA: 0.478.
Next, TCCCCGGGAGTCGTCGAGA: 0.116.
Take TCCCTGTTAGTAAGAGAGA: the TetR repression strength came to 0.158.
Consider TCCCCCCTAGTACACGAGA, for which the TetR repression strength was 0.41.
With TCCCCGGAAGTCAGGGAGA, the TetR repression strength is 0.141.
The sequence TCCCTAGGAGTGAGAGAGA showed a TetR repression strength of 0.293.
Under TCCCTAGGAGTCTGGGAGA stands 0.28; under TCCCTCGGAGTTTGGGAGA, 0.238; under TCCCTAATAGTATTCGAGA, 0.236.
Under TCCCAAGGAGTTTTTGAGA stands 0.299; under TCCCGGGGAGTCTCAGAGA, 0.479.
In turn, TCCCCCTAAGTTGGAGAGA had a TetR repression strength of 0.518.
Under TCCCATTCAGTAATGGAGA stands 0.145; under TCCCAGTGAGTGGCAGAGA, 0.392; under TCCCCAAGAGTTGTTGAGA, 0.278.
Next, TCCCTGTGAGTGTATGAGA: 0.165; TCCCGAAAAGTCGATGAGA: 0.152; TCCCGTAAAGTGGGCGAGA: 0.0438.
As to TCCCTATCAGTACGTGAGA, the TetR repression strength came to 0.349.
For TCCCGGAGAGTTCACGAGA, the TetR repression strength turned out to be 0.166.
Sequence TCCCGCGCAGTCACGGAGA gave a TetR repression strength of 0.206.
Take TCCCCGGTAGTGCGAGAGA: the TetR repression strength was determined as 0.218.
TCCCGCACAGTCCTGGAGA displayed a TetR repression strength of 0.539.
Under TCCCGCACAGTAGCGGAGA stands 0.0968.
In turn, TCCCGCTGAGTCTAGGAGA gave a TetR repression strength of 0.266.
Next, TCCCAATTAGTAAGCGAGA: 0.218; TCCCGAGCAGTCGTCGAGA: 0.202.
The sequence TCCCGATGAGTATGGGAGA came in with a TetR repression strength of 0.224.
In turn, TCCCGGTTAGTTAGAGAGA had a TetR repression strength of 0.0159.
Next, TCCCACGTAGTGATGGAGA: 0.0469.
On to TCCCTGAGAGTTGTTGAGA, for which the TetR repression strength was 0.169.
As to TCCCTGGGAGTCCCGGAGA, the TetR repression strength was found to be 0.128.
Under TCCCTCTTAGTCGGAGAGA stands 0.127; under TCCCATACAGTTCTAGAGA, 0.331.
TCCCCTCCAGTGTGCGAGA showed a TetR repression strength of 0.233.
TCCCCAAGAGTAACCGAGA gave a TetR repression strength of 0.183.
Under TCCCTATGAGTAGTAGAGA stands 0.204; under TCCCGTGTAGTACAAGAGA, 0.326; under TCCCCATGAGTTCCGGAGA, 0.553.
For TCCCTCAAAGTGGATGAGA, the TetR repression strength turned out to be 0.277.

Source of the values: a collection of fitness landscapes (doi:10.1038/s41467-024-54723-y).
